# Measured values: publication PMC6919601, “Identification of Plasmodium dipeptidyl aminopeptidase allosteric inhibitors by high throughput screening” (PLoS ONE, 2019)
# “And” between values parts separate entries of the source, which are not always exact repeats. Equal entries are not always repeated. In all, about 110,000 compounds went through this assay and about 230 (0.21%) showed an effect of 50% or more. This is one part of the list.
# Biological target: DPAP1 (Plasmodium falciparum, UniProt Q8IIJ9)
# Sequence (Q8IIJ9 whole entry, looked up): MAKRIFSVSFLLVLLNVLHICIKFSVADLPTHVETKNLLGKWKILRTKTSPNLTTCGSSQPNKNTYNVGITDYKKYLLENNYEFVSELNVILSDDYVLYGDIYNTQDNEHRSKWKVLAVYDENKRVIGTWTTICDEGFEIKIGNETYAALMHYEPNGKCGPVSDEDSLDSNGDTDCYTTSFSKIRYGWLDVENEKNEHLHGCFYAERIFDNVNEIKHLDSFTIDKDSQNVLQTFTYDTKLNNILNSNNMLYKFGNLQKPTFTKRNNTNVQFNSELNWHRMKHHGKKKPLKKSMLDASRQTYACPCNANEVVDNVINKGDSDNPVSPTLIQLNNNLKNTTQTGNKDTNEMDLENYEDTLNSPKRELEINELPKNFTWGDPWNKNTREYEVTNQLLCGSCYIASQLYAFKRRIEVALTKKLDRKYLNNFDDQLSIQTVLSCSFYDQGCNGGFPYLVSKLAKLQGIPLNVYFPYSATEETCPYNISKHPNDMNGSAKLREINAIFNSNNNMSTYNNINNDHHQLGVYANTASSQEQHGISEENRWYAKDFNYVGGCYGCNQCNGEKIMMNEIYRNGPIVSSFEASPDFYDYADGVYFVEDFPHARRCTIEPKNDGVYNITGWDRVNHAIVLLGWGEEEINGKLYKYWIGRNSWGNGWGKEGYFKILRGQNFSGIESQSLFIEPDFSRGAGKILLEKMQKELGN
# Assay: primary screen, percent inhibition; read by cleavage of a fluorogenic dipeptide substrate; higher = more effect of the substance
# Parameters: species or system P. falciparum D10 trophozoite lysates; single well
# 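Note: 30 min substrate incubation versus DMSO and 10 µM JCP410 controls.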
row,Compound,% Inhibition @ 10 uM
1,CCN(CC)S(=O)(=O)c1ccc(NC(=O)COc2cccc(C)c2)cc1,21.7%
2,O=C(COc1ccc(Cl)c(Cl)c1)Nc1ccc(Cn2cccn2)cc1,-6.05%
3,COc1cc2nc(NCc3ccccn3)n3nc(-c4ccccc4)nc3c2cc1OC,-6.07%
4,CCCCCCNC(=O)c1cnn2c(C)c(Cc3c(F)cccc3Cl)c(C)nc12,2.9%
5,COCCN1C(=O)C(O)=C(C(=O)c2ccc3c(c2)CC(C)O3)C1c1ccc(OC)c(OC)c1 (centres unmarked),-4.06%
6,COc1ccccc1OCCCC(=O)Nc1cccc(C)c1C,1.39%
7,CC1CCN(S(=O)(=O)c2ccc(NC(=O)CSc3ccccc3)cc2)CC1,-1.36%
8,CCOC(=O)C1=C(NC(=O)c2ccc(C)cc2)S/C(=C\c2cc(Br)ccc2O)C1=O,-3.74%
9,O=C(O)c1ccnc(SCC(=O)c2ccccc2)c1,-2.45%
10,O=C(O)C(Cc1c[nH]c2ccccc12)/N=C/c1c(O)oc2ccccc2c1=O (centres unmarked),3.38%
11,CC(C)OCCCNC(=O)c1cc(S(=O)(=O)N2CCOCC2)cn1C,-1.87%
12,CCCCCCc1cc2cc(C#N)c(=O)oc2cc1O,67.5%
13,Brc1ccccc1CNc1ccc2c[nH]nc2c1,1.88%
14,CCn1cc(CNC(=O)c2cc(-c3cccc(C)c3)nc3ccccc23)cn1,-5.13%
15,CCCCCc1ccc(-c2ccc(-c3noc(-c4ccc(Br)cc4)n3)cc2)cc1,-2.42%
16,CCOc1ccc(NC(=O)C(C)Oc2ccc(C)cc2)cc1 (centres unmarked),0.331%
17,Cc1oc2c(c(C)cc3oc(=O)c4c(c32)CCC4)c1C,3.81%
18,Cc1ccc(OCC(=O)O/N=C(\N)Cc2cccs2)cc1C,-3.28%
19,Cc1ccc2onc(CNC(=O)NC3CCCC3)c2c1,-4.93%
20,CC1(C)CC(=O)C(/C=N/CCN2CCN(C(=O)c3ccc(Br)cc3)CC2)=C(O)C1,2.01%
21,COC(=O)c1ccc(C2C(C#N)=C(N)Oc3[nH]nc(C)c32)cc1 (centres unmarked),-1.46%
22,Cn1c(NCC(=O)c2ccc(Cl)cc2Cl)cc(=O)n(C)c1=O,-0.865%
23,O=C(NC1(C(F)(F)F)C(=O)Nc2c1c(=O)[nH]c(=O)n2-c1ccc(F)cc1)c1ccc(Cl)cc1 (centres unmarked),3.72%
24,CCN1CCCC1CNC(=O)Cn1nc(C)c2sc3ccccc3c2c1=O (centres unmarked),-5.61%
25,CCCCOc1ccc(C(=O)N(Cc2ccco2)C2CCS(=O)(=O)C2)cc1 (centres unmarked),0.569%
26,Cc1cc2ccccc2c(=O)n1CC(=O)NCC(=O)NCC1COc2ccccc2O1 (centres unmarked),-8.38%

row,Compound,% Inhibition @ 10 uM
1,CS(=O)(=O)N(CC(=O)NCCc1ccccc1)C1CCCCC1,-0.132%
2,Cc1ccc(N)c(C(=O)CCCCC(=O)O)c1,0.84%
3,Cc1cccc(OCC(=O)NC23CC4CC(CC(C4)C2)C3)c1C,-21.8%
4,CCOc1ccc(C2CC(=O)NC3=C2C(=O)CC(c2cc(OC)ccc2OC)C3)cc1 (centres unmarked),-2.95%
5,CCOc1ccc(CCNc2nc3ccc(C)cc3n3cnnc23)cc1OCC,2.6%
6,CC1CCCC(NC(=O)C2c3ccccc3C(=O)N2Cc2ccc3c(c2)OCO3)C1C (centres unmarked),-1.34%
7,COC(=O)c1cccc(-c2ccc(/C=C3\Sc4ccccc4C3=O)o2)c1,-2.26%
8,CN(C)C(=O)c1ccccc1C(=O)N(C)C,-5.36%
9,Cc1ccc(S(=O)Cc2ccc(C(=O)NCCc3ccc(Cl)cc3)o2)cc1 (centres unmarked),0.458%
10,CCOC(=O)C(=O)Nc1sc(C(=O)NC2CCCC2)c(C)c1C(=O)OCC,3.47%
11,CCOC(=O)c1c(NC(=S)NCc2ccccc2)sc2c1CC(C)(C)OC2,7.73%
12,O=C(NCc1ccc(F)cc1)C1c2ccccc2Oc2ccccc21,-3.49%
13,O=C(COc1ccc(Br)cc1)Nc1ccc(S(=O)(=O)N2CCc3ccccc32)cc1,-2.02%
14,CC(C)N(Cc1ccccc1)C(=O)c1cccc([N+](=O)[O-])c1,-0.856%
15,CC(C)(C)c1cc(N/C(=N\S(=O)(=O)c2ccc(Br)cc2)c2ccccc2)no1,-3.33%
16,Oc1nc2c(-c3ccccc3)nnn2c2ccccc12,4.02%
17,O=C(Nc1cccc(Cl)c1)Nc1cc(Cl)ccc1Cl,-0.127%
18,O=C(NC(c1ccccc1)c1ccccc1)C1CCN(c2cnccn2)CC1,-2.71%
19,O=C(/C=C/c1ccccc1)N1CCN(C/C=C/c2ccccc2)CC1,1.48%
20,Cc1cc(NC(=O)CSc2cn(CCNC(=O)c3ccc(F)cc3)c3ccccc23)no1,-0.631%
21,O=Nc1c(O)[nH]c2ccc([N+](=O)[O-])cc12,1.42%
22,Cc1ccccc1C(=O)Nc1sc2c(c1C(=O)N1CCCC1)CCCC2,-2.29%
23,COc1ccc(NC(=O)C2CC(=O)N=C(Nc3ccc(C)cc3)S2)c(OC)c1 (centres unmarked),-4.01%
24,COc1ccc(OC)c(NC(=O)CSc2ncnc3[nH]cnc23)c1,5.49%
25,COc1ccccc1C1(c2ccc(O)cc2)CCCC1,-0.233%
26,COc1ccc(C2=C/C(=C3\c4ccccc4-c4ncccc43)C(=O)O2)cc1,14.4%

row,Compound,% Inhibition @ 10 uM
1,CCCOC(=O)c1c(N)sc2c1CCCCC2,30.9%
2,COc1ccccc1NS(=O)(=O)c1ccc(N)cc1,-4.71%
3,CC(C)(C)OC(=O)NC1CCN(C(=O)NC2CCCCC2)CC1,-1.68%
4,COc1ccccc1CN(C(C)=O)C1CC(C)(C)N(C(C)=O)C(C)(C)C1,5.38%
5,O=C(Cn1cccc1C(=O)c1ccccc1)NCc1cccc(Cl)c1,2.76%
6,O=C(O)c1cccc(NC(=O)c2cccc(S(=O)(=O)NCc3ccccc3)c2)c1,-1.91%
7,CC(C)OCCCNC(=O)c1cc(O)nc2ccc(Br)cc12,-1.79%
8,Clc1ccccc1N1CCN(Cc2cc(Br)cs2)CC1,3.16%
9,CC(C)=CCN(C)CCc1ccccn1,3.24%
10,CCCc1[nH]nc2c1C(c1ccc(NC(C)=O)cc1)C(C#N)=C(N)O2 (centres unmarked),-0.105%
11,COc1ccc(N2C(=O)C(Cl)=C(Nc3cccc(C)c3C)C2=O)cc1,3.19%
12,CC(C)C[C@H](NC(=O)OCc1ccccc1)C(=O)NC1(C#N)CCC(C)CC1 (some centres unmarked),-1.41%
13,O=C(/C=C/c1ccc(N2CCOCC2)o1)c1ccc(Br)cc1,2.8%
14,COc1cc(-c2cc(C(F)(F)F)n3ncc(C(=O)O)c3n2)cc(OC)c1OC,5.12%
15,Cc1ccc(NC(=O)C2CC(=O)N(c3ccccc3)C2)c(C)c1 (centres unmarked),1.34%
16,CC1CN(Cc2ccc3c(c2)OCO3)CC(C)O1 (centres unmarked),-0.636%
17,Cc1ccc(C)c(OCCCCCCc2c(C)n[nH]c2C)c1,-2.12%
18,CC(C)NCCN1C(=O)c2ccccc2C(C(=O)O)C1c1cccs1 (centres unmarked),-2.9%
19,O=C(NC(Cc1c[nH]c2ccccc12)C(=O)O)c1ccc(F)cc1 (centres unmarked),10.2%
20,C#CC(CCN1CCCCC1)(OC)c1ccccc1 (centres unmarked),-3.93%
21,CCOC(=O)N1CCC(NC(=O)C2CCN(c3nc(-c4ccc(OC)cc4)no3)CC2)CC1,1.96%
22,COc1ccc(Br)cc1/C=C1\N=C(c2cc(OC)c(OC)c(OC)c2)OC1=O,-3.33%
23,Cc1cc(C)n2c(nc3ccccc32)c1C(=O)O,-4.68% and 0.331%
24,CC(C(=O)Nc1nc(-c2ccccc2)cs1)N1C(=O)c2ccccc2C1=O (centres unmarked),-6.6%
25,Cc1ccc(S(=O)(=O)N(C)CCCc2nc3ccccc3[nH]2)cc1,-6.55%
26,Cn1ncc(Cl)c(Oc2ccccc2)c1=O,3.85%

row,Compound,% Inhibition @ 10 uM
1,NS(=O)(=O)c1ccc(NC(=O)c2cc(Cl)ccc2Cl)cc1,19.1%
2,COc1ccc(-c2ccc(CCC(=O)O)cc2)cc1,4.03%
3,CCCCNC(=O)CCc1nnc2n(CC(C)C)c(=O)c3ccccc3n12,0.981%
4,Cc1ccccc1C1C=C(c2ccccc2OC(F)F)Nc2ncnn21 (centres unmarked),0.219%
5,Cc1cccnc1NC(=O)C1CCCN(c2ncnc3c2nc2n3CCCCC2)C1 (centres unmarked),4.39%
6,CC1CCCC(C)N1C(=O)c1cccc2c1-c1ccccc1C2=O (centres unmarked),2.17%
7,CN(C)CCNC(=O)c1cnn(-c2ccccc2)c1-n1cccc1,-1.58%
8,COc1cc(CN2CCN(Cc3ccccc3C)CC2)cc(OC)c1OC,-10.8%
9,COCC(C)NCc1ccc(OC)c(OC)c1 (centres unmarked),-3.39%
10,C=CCNC(=O)CN(c1cc(Cl)cc(Cl)c1)S(=O)(=O)c1ccccc1,-6.75%
11,Cc1cccc(-c2nnn3c2nc(NC2CCCC2)c2ccccc23)c1,2.04%
12,Cc1ccc(/C=C2\N=C(c3ccccc3F)OC2=O)o1,4.77%
13,O=C1NC2(CCNCC2)N=C1c1ccc(F)cc1,-0.326%
14,CCN(CC)C(=O)c1sc(NC(=O)C2CC2)c(C(N)=O)c1C,14.6%
15,CCc1cc2c(cc3c(=O)n(CC(=O)NCc4ccccn4)ncn32)s1,-5.32%
16,FC(F)(F)c1cccc(CN2CCN(c3ccccc3)CC2)c1,-0.192%
17,CCOC(=O)C1=C(N)OC2=C(C(=O)CCC2)C1c1ccc(OCC)cc1 (centres unmarked),-4.18%
18,CCc1nnc2sc(-c3cccs3)nn12,-2.84%
19,COc1ccc(-c2c3c(nc4sc(C(=O)N5CCOCC5)c(N)c24)CC(C)(C)CC3=O)cc1,-0.278%
20,Cc1nc2c(C(=O)NCCCN(Cc3ccccc3)C(C)C)cnn2c(C)c1Cc1ccccc1,-5.92%
21,Cc1ccc(CCNC(=O)CSCc2ccc(C)cc2)cc1,3.79%
22,CCn1ncc(C2=NOC(C(=O)NCc3ccccn3)C2)c1C (centres unmarked),-8.58%
23,COc1ccc(OC)c(C2=C/C(=C/c3cccnc3)C(=O)O2)c1,1.72%
